The antibiotic and cytotoxicity screens of Wong et al. (2023)
The list shows a part of the results.

How the values were obtained:
HSkMC = human skeletal muscle cells; test: cytotoxicity call (relative viability < 0.9); conditions: 10 µM
HepG2 = test: cytotoxicity call (relative viability < 0.9); conditions: 10 µM
S. aureus RN4220 = test: growth inhibition call (relative growth <= 0.2); conditions: 50 µM

Q: `CC1C(NC(=O)C(=NOC(C)(C)C(=O)O)c2csc(N)n2)C(=O)N1S(=O)(=O)O` (stereo not drawn) was tested. Which cytotoxicity call (HSkMC) did it give?
A: inactive

Q: And the cytotoxicity call (HepG2)?
A: inactive

Q: And the growth inhibition call (S. aureus RN4220)?
A: inactive

Q: `CCCNC(=O)N1C[C@H](C)[C@H](OC)CN(C)C(=O)c2ccc(NS(=O)(=O)CC(F)(F)F)cc2OC[C@H]1C` was tested. Which cytotoxicity call (HSkMC) did it give?
A: inactive

Q: What about the cytotoxicity call (HepG2) of the same molecule?
A: inactive

Q: And the growth inhibition call (S. aureus RN4220)?
A: inactive

Q: With `CCn1cc(C(=O)O)c(=O)c2cc(F)c(N3CCN(C)CC3)cc21.CS(=O)(=O)O` as the molecule, how does the cytotoxicity call (HSkMC) read?
A: inactive

Q: What about the cytotoxicity call (HepG2) of the same molecule?
A: inactive

Q: And the growth inhibition call (S. aureus RN4220)?
A: active

Q: How did the cytotoxicity call (HSkMC) turn out when `C[C@@H]1CN([C@H](C)CO)C(=O)c2cccc(NC(=O)C3CCCCC3)c2O[C@@H]1CN(C)Cc1ccc(-c2ccccc2)cc1` was run?
A: inactive

Q: And the cytotoxicity call (HepG2)?
A: inactive

Q: What about the growth inhibition call (S. aureus RN4220) of the same molecule?
A: inactive

Q: Which results are given for `c1coc(CNc2nc[n+]3c4c2ncn4CC3)c1`?
A: cytotoxicity call (HSkMC): inactive; cytotoxicity call (HepG2): inactive; growth inhibition call (S. aureus RN4220): inactive

Q: Which cytotoxicity call (HSkMC) does the source give for `COc1ccc(CCNC(=O)[C@@]2(Sc3ccc(C)cc3)CC(=O)N(Cc3cc(C(F)(F)F)cc(C(F)(F)F)c3)[C@@H]2c2ccc(CO)cc2I)cc1` here?
A: inactive

Q: And the cytotoxicity call (HepG2)?
A: inactive

Q: And the growth inhibition call (S. aureus RN4220)?
A: inactive

Q: With `CC(C)(C)[S@](=O)N1Cc2cc(C(=O)N3CCc4ccccc4C3)nc(-c3cccc(-c4cncnc4)c3)c2[C@@H]1CCO` as the molecule, how does the cytotoxicity call (HSkMC) read?
A: inactive

Q: What about the cytotoxicity call (HepG2) of the same molecule?
A: inactive

Q: What about the growth inhibition call (S. aureus RN4220) of the same molecule?
A: inactive

Q: Which cytotoxicity call (HSkMC) does the source give for `COC(=O)C(N)CS.Cl` (stereo not drawn) here?
A: inactive

Q: What about the cytotoxicity call (HepG2) of the same molecule?
A: inactive

Q: And the growth inhibition call (S. aureus RN4220)?
A: inactive

Q: `CN1C(=O)c2cc(NC(=O)C3CCOCC3)ccc2OC[C@@H]2O[C@@H](CC(=O)NCc3ccccc3F)CC[C@@H]21` was tested. Which cytotoxicity call (HSkMC) did it give?
A: inactive

Q: What about the cytotoxicity call (HepG2) of the same molecule?
A: inactive

Q: What about the growth inhibition call (S. aureus RN4220) of the same molecule?
A: inactive

Q: How did the cytotoxicity call (HSkMC) turn out when `O=C(C[C@H]1CC[C@H](NS(=O)(=O)c2ccccc2)[C@H](CO)O1)NCc1ccncn1` was run?
A: inactive

Q: And the cytotoxicity call (HepG2)?
A: inactive

Q: What about the growth inhibition call (S. aureus RN4220) of the same molecule?
A: inactive

Q: Which results are given for `CO[C@@H](CN(C)S(=O)(=O)c1cccc(Cl)c1)[C@@H](C)CN([C@@H](C)CO)S(=O)(=O)c1ccc(Cl)cc1`?
A: cytotoxicity call (HSkMC): inactive; cytotoxicity call (HepG2): inactive; growth inhibition call (S. aureus RN4220): inactive
